{
  "source": "PubChem BioAssay AID445",
  "about": "(National Center for Advancing Translational Sciences (NCATS), 2006)",
  "note": "The whole screen tested about 110,000 compounds, of which about 40 (0.04%) were called active. The inconclusive results got no clear call from the source; some entries with a clear call stand among them for comparison. Calls follow the shape of the dose curve; as a rule, active = well fitted curve in the direction sought with a large enough effect in the signal ratio (not every such curve was filed as active); inconclusive = small, poorly fitted or top-dose-only effect, or a change in a side signal; inactive = flat fitted curve, though single readings scatter; the % refers to the signal ratio. Where the call is inconclusive, the potency comes from a doubtful curve fit. Potency is read from the fitted curve at half-maximal effect.",
  "data": [
    {"assay": "IkB Signaling;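 as to IkBa stabilization activation: 0% = basal untreated cells and 100% = reference inhibitor full response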", "settings": "ABC-DLBCL IkBa-CBG/CBR dual luciferase ratio (green luciferase fused to IkBa over red control in OCI-Ly3 lymphoma cells), 4 h; IkBa stabilization activation: at 57.1 µM (top of the series), scaled: untreated 0%, proteasome inhibitor 100% unless noted", "outline": "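Curves were fitted separately to fusion (green), unfused (red) and ratio luminescence, then classed by r2, magnitude and activity. Cells: OCI-Ly3, 4 h compound plus doxycycline at 37C; 10 uM MG-132 defined full response.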", "values": [
      {"smiles": "Cc1ccc(NC(=O)CSc2ncc3c(n2)-c2ccc(Cl)cc2N(C)S3(=O)=O)cc1F", "IkBa stabilization activation": "inactive: 1.91%"},
      {"smiles": "CCOC(=O)Nc1ccc2c(c1)N(C(=O)CCN(C)C)c1ccccc1S2", "IkBa stabilization activation": "inconclusive: -4.37% [signal inhibitor]"},
      {"smiles": "CCOC(=O)c1ccc(NC(=O)N2CCOc3ccccc32)cc1", "IkBa stabilization activation": "inactive: -3.98%"},
      {"smiles": "CCOC(=O)C1CCN(c2c(NCc3ccc(C(=O)NC(C)CC)cc3)c(=O)c2=O)CC1", "note": "(configuration not stated)", "IkBa stabilization activation": "inactive: 0.477%"},
      {"smiles": "COCCCNC(=O)C(=O)Nc1c2c(nn1-c1cccc(Cl)c1)CSC2", "IkBa stabilization activation": "inactive: 2.32%"},
      {"smiles": "COC(=O)c1c(-c2cccs2)csc1NC(=O)COc1c(C)ccc(C)c1C", "IkBa stabilization activation": "inconclusive: 1.68% [signal inhibitor]"},
      {"smiles": "CCCCCSc1nc2sc3c(c2c(=O)n1-c1ccccc1)CCN(C(C)=O)C3", "IkBa stabilization activation": "inconclusive: 14.5% [signal inhibitor]"},
      {"smiles": "O=C(OCc1nnc(-c2ccc(Cl)cc2)o1)c1ccncc1", "IkBa stabilization activation": "inactive: 0.809%"},
      {"smiles": "CC(C)C[C@H](N)CSSC[C@@H](N)CC(C)C", "IkBa stabilization activation": "inactive: 6.64%"},
      {"smiles": "CCc1cccc(NC(=O)c2cc3c(=O)n(Cc4ccc(OC)cc4)ccc3nc2C)c1", "IkBa stabilization activation": "inconclusive: 5.09% [signal inhibitor]"},
      {"smiles": "CCOC(=O)c1ccccc1NC(=O)c1ccc2c(=O)n3c(nc2c1)CCCCC3", "Potency": "inconclusive: 6.31 µM [rising, single point]"},
      {"smiles": "COc1nc(C)ccc1-c1noc(-c2ccccn2)n1", "IkBa stabilization activation": "inactive: -3.84%"},
      {"smiles": "CCOc1ccc(CCNC(=O)c2ccc(Nc3nc4ccccc4n4nnnc34)cc2)cc1OCC", "Potency": "inconclusive: 7.94 µM [signal inhibitor, partial curve]"},
      {"smiles": "O=C(CSc1nccc2ccccc12)N1CCN(c2ccccn2)CC1", "IkBa stabilization activation": "inconclusive: 8.44% [signal inhibitor]"},
      {"smiles": "O=C(Cc1cc(=O)[nH]c(=O)[nH]1)N1CCN(C(=O)c2ccco2)CC1", "Potency": "inconclusive: 1 µM [signal inhibitor, full curve]"},
      {"smiles": "Cc1cc2oc(C(=O)N(Cc3ccccc3F)C3CCS(=O)(=O)C3)c(C)c2cc1Cl", "note": "(configuration not stated)", "IkBa stabilization activation": "inconclusive: -0.161% [signal inhibitor]"},
      {"smiles": "Cc1ccc(OC[C@H](O)[C@H](C)NC(C)C)c2c1CCC2", "IkBa stabilization activation": "inconclusive: 0.19% [signal inhibitor]"},
      {"smiles": "Cc1ccc(C2CC(=O)Nc3cc4c(cc32)OCCO4)cc1", "note": "(configuration not stated)", "IkBa stabilization activation": "inconclusive: 4.29% [signal inhibitor]"},
      {"smiles": "COc1ccc2nc(NCCO)[nH]c2c1", "IkBa stabilization activation": "inactive: 0.692%"},
      {"smiles": "CC1Cc2ccccc2N1C(=O)COc1cccc(-n2cnnn2)c1", "note": "(configuration not stated)", "IkBa stabilization activation": "inconclusive: 2.15% [signal inhibitor]"},
      {"smiles": "COc1ccccc1-c1cc(C(=O)Nc2ccc(F)cc2F)no1", "Potency": "inconclusive: 1.26 µM [signal inhibitor, full curve]"},
      {"smiles": "Cc1onc(-c2ccccc2)c1C(=O)N1CCCN(C(=O)c2c(-c3ccccc3)noc2C)CC1", "IkBa stabilization activation": "inactive: -0.119%"},
      {"smiles": "CCOc1ccccc1N1CCN(C(=O)c2cccc(-c3ccc(O)cc3)c2)CC1", "IkBa stabilization activation": "inconclusive: -3.49% [signal inhibitor]"},
      {"smiles": "CCCCOC(=O)c1ccc(NC(=O)Cn2nnc3sc4c(c3c2=O)CCCC4)cc1", "IkBa stabilization activation": "inconclusive: 4.47% [signal inhibitor]"},
      {"smiles": "CC[C@@H](C)[C@H](NC(=O)OC(C)(C)C)c1nnc(S(=O)(=O)Cc2cc(C)ccc2C)o1", "Potency": "inconclusive: 6.31 µM [rising, single point]"},
      {"smiles": "CN1CCc2c(cc(O)c(O)c2Cl)[C@H](c2cccc(Cl)c2)C1", "IkBa stabilization activation": "inactive: 8.46%"},
      {"smiles": "CCc1nc2oc3ccccc3c(=O)c2c(=O)n1-c1ccccc1", "Potency": "inconclusive: 2.51 µM [signal inhibitor, partial curve]"},
      {"smiles": "CCc1cccc(NC(=O)C(Cc2ccccc2)NS(=O)(=O)c2ccc3c(c2)oc(=O)n3C)c1", "note": "(configuration not stated)", "IkBa stabilization activation": "inconclusive: 1.32% [signal inhibitor]"},
      {"smiles": "O=c1c(-c2cccs2)nc2cnc(N3CCNCC3)nc2n1Cc1cccs1", "IkBa stabilization activation": "inactive: -3.07% [at 11.4 µM, scaled: untreated 0%, proteasome inhibitor 100%]"},
      {"smiles": "Cc1ccc(C2=CC(c3ccccc3F)n3c(nc4ccccc43)N2)cc1C", "note": "(configuration not stated)", "Potency": "inconclusive: 1 µM [signal inhibitor]"},
      {"smiles": "Nc1ccccc1NC1=CC(=O)CC(c2ccco2)C1", "note": "(configuration not stated)", "IkBa stabilization activation": "inconclusive: 0.446% [signal inhibitor]"},
      {"smiles": "CN(C)c1ccc(-n2c(CCC(=O)O)ccc2-c2ccccc2)cc1", "IkBa stabilization activation": "inconclusive: 5.6% [signal inhibitor]"},
      {"smiles": "COc1ccc(C2=NC(c3ccncc3)=Nc3ccc(Br)cc3N2)cc1", "IkBa stabilization activation": "inconclusive: 0.884% [signal inhibitor]"},
      {"smiles": "CCOC(=O)C1=C(CN2CCCCC2)NC(=O)NC1c1cc(C)ccc1C", "note": "(configuration not stated)", "IkBa stabilization activation": "inconclusive: 1.34% [signal inhibitor]"},
      {"smiles": "CC(C)(C)c1ccc(OCCn2cc(C(=O)c3ccco3)c3ccccc32)cc1", "Potency": "inconclusive: 1.58 µM [signal inhibitor]"},
      {"smiles": "COc1ccccc1N1CCN(C(CNC(=O)C(=O)NCc2ccc(C)cc2)c2cccnc2)CC1", "note": "(configuration not stated)", "IkBa stabilization activation": "inconclusive: 0.951% [signal inhibitor]"},
      {"smiles": "CCOC(=O)c1ccc(NS(=O)C23CC4CC(CC(C4)C2)C3)cc1", "note": "(configuration not stated)", "IkBa stabilization activation": "inconclusive: -1.62% [signal inhibitor]"},
      {"smiles": "CCc1cccc(NC(=O)C2CCCN(S(=O)(=O)c3cccs3)C2)c1", "note": "(configuration not stated)", "IkBa stabilization activation": "inconclusive: 3.63% [signal inhibitor]"},
      {"smiles": "Cc1c2c(nc3c(C(=O)NC4CC4)cnn13)CCCC2", "IkBa stabilization activation": "inactive: -2.77%"},
      {"smiles": "Cc1cc([C@](C)(N)C(=O)O)ccc1P(=O)(O)O", "IkBa stabilization activation": "inactive: 0.691%"},
      {"smiles": "Cc1cccc(-n2ccnc2SCC(=O)Nc2ccc3c(c2)OCCO3)c1", "IkBa stabilization activation": "inconclusive: 0.159% [signal inhibitor]"},
      {"smiles": "CCc1ccc(N2C(=O)CSC23C(=O)N(Cc2ccc(C)cc2)c2ccccc23)cc1", "note": "(configuration not stated)", "IkBa stabilization activation": "inconclusive: -1.26% [signal inhibitor]"},
      {"smiles": "COc1ccc(S(=O)(=O)c2c(C)c(NS(=O)(=O)c3ccccc3)cc(C)c2O)cc1", "IkBa stabilization activation": "inconclusive: 0.931% [signal inhibitor]"},
      {"smiles": "COc1ccc(Cn2cc(C(=O)c3ccc(C)cc3)c(=O)c3cc(OC)c(OC)cc32)cc1", "IkBa stabilization activation": "inconclusive: 0.977% [signal inhibitor]"},
      {"smiles": "CN(C)c1ccc(C(=C2C=CC(=[N+](C)C)C=C2)c2c(O)c(S(=O)(=O)O)cc3cc(S(=O)(=O)O)ccc23)cc1", "IkBa stabilization activation": "inconclusive: 16.7% [signal inhibitor] [at 11.4 µM, scaled: untreated 0%, proteasome inhibitor 100%]"},
      {"smiles": "COc1cc(C(c2c(C)[nH][nH]c2=O)c2c(C)[nH][nH]c2=O)ccc1OC(=O)c1cccc(C)c1", "Potency": "inconclusive: 25.1 µM [signal inhibitor]"},
      {"smiles": "Cc1ccc(CN2CCc3nc(N4CCN(c5ccccc5F)CC4)ncc3C2)cc1C", "IkBa stabilization activation": "inconclusive: -1.93% [signal inhibitor]"},
      {"smiles": "Cc1nn(-c2ccc(F)cc2)c2sc(C(=O)N3CCCCCC3)cc12", "IkBa stabilization activation": "inactive: -1.08%"},
      {"smiles": "OC(COc1c(F)cc(Br)cc1F)CN1CCN(c2ccc(F)cc2)CC1", "note": "(configuration not stated)", "IkBa stabilization activation": "inconclusive: 3.99% [signal inhibitor]"},
      {"smiles": "O=C(NCc1ccccc1Cl)C1CCCN(C(=O)c2cnn(-c3ccccc3)c2-n2cccc2)C1", "note": "(configuration not stated)", "IkBa stabilization activation": "inconclusive: 1.09% [signal inhibitor]"},
      {"smiles": "CN1CCN(c2ncc3nc(-c4ccccc4)c(=O)n(C)c3n2)CC1", "IkBa stabilization activation": "inactive: -2.37% [at 11.4 µM, scaled: untreated 0%, proteasome inhibitor 100%]"},
      {"smiles": "Cc1nc(SCC(=O)OCc2ccccc2)c2c(=O)n(C)c(=O)n(C)c2n1", "IkBa stabilization activation": "inactive: -0.3%"},
      {"smiles": "Cc1nc2c(C(=O)NCCc3ccc(Cl)cc3)c[nH]n2c(=O)c1Cc1ccc(Cl)cc1", "IkBa stabilization activation": "inconclusive: -0.765% [signal inhibitor]"},
      {"smiles": "COc1ccccc1C(=O)Nc1c(C(=O)N(C)Cc2ccccc2)sc2nc(C)c(Cl)c(C)c12", "IkBa stabilization activation": "inconclusive: -2.52% [signal inhibitor]"},
      {"smiles": "Cc1nc(N)nc2ccccc12", "IkBa stabilization activation": "inactive: -0.851% [at 11.4 µM, scaled: untreated 0%, proteasome inhibitor 100%]"},
      {"smiles": "CCc1ccc(S(=O)(=O)NCc2csc(-c3ccccc3)n2)s1", "IkBa stabilization activation": "inconclusive: 1.68% [signal inhibitor]"},
      {"smiles": "CCCc1cc(=O)n2c(nc3ccccc32)[nH]1", "Potency": "inconclusive: 25.1 µM [signal inhibitor, partial curve]"},
      {"smiles": "CNC(=O)CN1C(=O)c2cccnc2Sc2ccccc21", "IkBa stabilization activation": "inconclusive: -0.63% [signal inhibitor]"},
      {"smiles": "COc1ccc(-c2nc3cc(C)ccn3c2NC(=O)c2ccc(C)c(C)c2)cc1", "IkBa stabilization activation": "inconclusive: 0.909% [signal inhibitor]"},
      {"smiles": "COc1ccc(-n2c(=O)c3c4c(sc3n(Cc3ccccc3Cl)c2=O)CCC4)c(OC)c1", "IkBa stabilization activation": "inconclusive: 3.34% [signal inhibitor]"},
      {"smiles": "Clc1ccc([C@@H](c2ccccc2Cl)C(Cl)Cl)cc1", "IkBa stabilization activation": "inactive: 18.2%"},
      {"smiles": "Cc1cccc(OCC(=O)Nc2ccccc2OCc2cc(=O)n3ccccc3n2)c1", "IkBa stabilization activation": "inconclusive: 0.828% [signal inhibitor]"},
      {"smiles": "Cc1cc(=O)[nH]c(/N=C(\\N)Nc2ccc(Cl)cc2)n1", "IkBa stabilization activation": "inactive: -0.166% [at 11.4 µM, scaled: untreated 0%, proteasome inhibitor 100%]"},
      {"smiles": "CCn1c(SCC(=O)Nc2nc3ccccc3s2)nnc1-c1ccc(OC)cc1", "IkBa stabilization activation": "inactive: -1.55%"},
      {"smiles": "CC1CCN(S(=O)(=O)c2cc(C(=O)NCc3ccccc3)n(C)c2)CC1", "IkBa stabilization activation": "inconclusive: -0.0644% [signal inhibitor]"},
      {"smiles": "COc1cc2ncc3c(-c4ccccc4)nn(CC(=O)NC4CCCCC4)c3c2cc1OC", "IkBa stabilization activation": "inconclusive: 2.45% [signal inhibitor]"},
      {"smiles": "CN(C(=O)c1ccc2c(c1)N(Cc1ccc(F)cc1)C(=O)c1ccccc1S2(=O)=O)C1CCCCC1", "IkBa stabilization activation": "inconclusive: 0.918% [signal inhibitor]"}
    ]}
  ]
}
